In PubChem BioAssay (NCATS):
Where “and” joins values, the source holds several entries; their conditions need not be identical. Equal entries are not always repeated. This list was built around the results that the source calls inconclusive (neither active nor inactive); the mix of calls is not that of the screen. For some assays here: No potency is given beside an inconclusive call; the fits are too rough. Calls of active or inactive are those of the source. Unless noted, the call rests on the fitted dose curve; in most records, active means well fitted curve in the direction sought with a large enough effect; inconclusive means small, poorly fitted or top-dose-only effect, or another doubt; inactive means no such curve, though single readings can be large; an effect the other way counts as inactive or inconclusive.

Columns and labels:
[1] = NFAT Signaling Pathway (AID 444; active means well fitted curve in either direction with a large enough effect, not every such curve was filed as active; inconclusive means small, poorly fitted or top-dose-only effect, or another doubt;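 further: carbachol stimulus at about its EC50 of 1 µM final; on the % scale 0 is the no-effect control and ±100 the full control effect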); details: Jurkat NFAT-bla M1, carbachol, beta-lactamase ratio, 5 h; at 17.2 µM (top of the series)
Outline: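 Read-out: CCF4 FRET ratio (460 nm/530 nm) after 1 h RT dye loading, used for %activity and AC50 from titration series. Cells: Jurkat NFAT-β-lactamase/M1 line, treated with compound plus 1 uM carbachol for 5 h, 37 °C.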

[2] = target: Glucocorticoid receptor (Homo sapiens) (UniProt P04150); experiment: GR-GFP Redistribution (AID 450;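 active means compounds whose dose series gives a full or clear partial fitted curve of increased nuclear translocation; inconclusive means weak partial curve or effect only at the top dose; inactive means no dose-dependent translocation response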; further: potency means the concentration at half of the fitted maximal effect); details: U2OS GR-GFP nuclear translocation, laser cytometry, 2 h
[3] = qHTS for differential inhibitors of proliferation of Plasmodium falciparum line 7G8 (AID 1815);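 further: potency means the concentration at half of the fitted maximal effect; parasite growth measured after three days of incubation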
[4] = qHTS for differential inhibitors of proliferation of Plasmodium falciparum line GB4 (AID 1816); details: Potency: Plasmodium falciparum GB4 proliferation inhibition;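 further: parasite growth measured after 72 h incubation; 0% = vehicle DMSO and -100% = reference inhibitor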
[5] = qHTS for differential inhibitors of proliferation of Plasmodium falciparum line W2 (AID 1883); details: Potency: Plasmodium falciparum W2 proliferation inhibition;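 further: potency means the concentration at half of the fitted maximal effect; parasites grown with compound for 72 h before lysis and staining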
[6] = target: RecQ-like DNA helicase BLM (Homo sapiens) (UniProt P54132); experiment: qHTS Validation Assay for Inhibitors of Bloom's syndrome helicase (BLM) (AID 2364);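 further: plate controls were DMSO vehicle for no effect and enzyme-free control for full effect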
Outline: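 Forked 20-bp duplex substrate (200 nM, TAMRA/BHQ-2) plus 2 mM ATP added after 15 min compound preincubation with 50 nM enzyme, pH 8.0, poly(dI-dC) 2.5 ug/ml. Strand separation followed by fluorescence (525/598 nm) over 2 h, normalized to enzyme-free and DMSO controls.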

[7] = qHTS of pediatric cancer cell lines to identify multiple opportunities for drug repurposing: Primary screen for BT-37 cells (AID 1347094);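 further: plate controls were DMSO for no effect and bortezomib for full effect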
Outline: (§1)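 Following a 5-hour attachment period, cells at 500-1,000/well received compounds and were cultured for 48 hours. CellTiter-Glo was added and luminescence read to estimate viable, metabolically active cells.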

[8] = qHTS of pediatric cancer cell lines to identify multiple opportunities for drug repurposing: Primary screen for Saos-2 cells (AID 1347097); details: Saos-2 viability, CellTiter-Glo ATP luminescence, 48 h; activity change, negative = cytotoxic: at 46 µM (top of the series); further: on the % scale 0 is the no-effect control and ±100 the full control effect; nearly all actives have a fitted effect of over 40% in size
Outline: as §1

[9] = qHTS of pediatric cancer cell lines to identify multiple opportunities for drug repurposing: Confirmatory screen for NB1643 cells (AID 1347109);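 further: plate controls were DMSO for no effect and bortezomib for full effect; nearly all actives have a fitted effect of over 45% in size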
Outline: (§2)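 Cells (500-1,000/well) rested 5 h, then received compounds for 48 h; metabolically active cells were measured by CellTiter-Glo luminescence. Final concentrations spanned up to 46 µM (MIPE, 11-point) or 0.59 nM-46 µM (NPC, 8-point) in primary screens, 11-point in follow-ups.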

[10] = qHTS of pediatric cancer cell lines to identify multiple opportunities for drug repurposing: Confirmatory screen for BT-12 cells (AID 1347112);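 further: viability read after 48 h of compound exposure; on the % scale 0 is the no-effect control and ±100 the full control effect; nearly all actives have a fitted effect of over 55% in size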
Outline: as §2

[11] = qHTS of pediatric cancer cell lines to identify multiple opportunities for drug repurposing: Confirmatory screen for LAN-5 cells (AID 1347113); further: nearly all actives have a fitted effect of over 65% in size
Outline: as §2

[12] = qHTS of pediatric cancer cell lines to identify multiple opportunities for drug repurposing: Confirmatory screen for DAOY cells (AID 1347114); further: on the % scale 0 is the no-effect control and ±100 the full control effect; nearly all actives have a fitted effect of over 65% in size
Outline: (§3)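 Viability measured as metabolically active cells via CellTiter-Glo luminescence following 48 hours of compound exposure, 11-point dilutions in confirmatory testing. 500-1,000 cells/well plated 5 hours before dosing; controls were DMSO and 2.3 µM bortezomib.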

[13] = qHTS of pediatric cancer cell lines to identify multiple opportunities for drug repurposing: Confirmatory screen for NB-EBc1 cells (AID 1347115);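 further: potency means the concentration at half of the fitted maximal effect; cells exposed to compound for 48 h before the viability read; nearly all actives have a fitted effect of over 45% in size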
Outline: as §2

[14] = qHTS of pediatric cancer cell lines to identify multiple opportunities for drug repurposing: Confirmatory screen for SJ-GBM2 cells (AID 1347116); further: nearly all actives have a fitted effect of over 60% in size
Outline: as §3

[15] = qHTS of pediatric cancer cell lines to identify multiple opportunities for drug repurposing: Confirmatory screen for BT-37 cells (AID 1347117);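 further: plate controls were DMSO for no effect and bortezomib for full effect; nearly all actives have a fitted effect of over 55% in size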
Outline: as §2

[16] = qHTS of pediatric cancer cell lines to identify multiple opportunities for drug repurposing: Confirmatory screen for TC32 cells (AID 1347118);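 further: potency means the concentration at half of the fitted maximal effect; cells exposed to compound for 48 h before the read; nearly all actives have a fitted effect of over 65% in size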
Outline: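 qHTS, TC32, 48 h drug treatment, CellTiter-Glo luminescence as a proxy for metabolically active cells; primary top concentration 46 µM (MIPE 11-pt, NPC 8-pt); confirmatory 11-pt.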

[17] = qHTS of pediatric cancer cell lines to identify multiple opportunities for drug repurposing: Confirmatory screen for U-2 OS cells (AID 1347122);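 further: plate controls were DMSO for no effect and bortezomib for full effect; nearly all actives have a fitted effect of over 65% in size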
Outline: as §2

[18] = qHTS of pediatric cancer cell lines to identify multiple opportunities for drug repurposing: Confirmatory screen for OHS-50 cells (AID 1347128);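 further: compound exposure lasted 48 h at 37 degrees C; on the % scale 0 is the no-effect control and ±100 the full control effect; nearly all actives have a fitted effect of over 55% in size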
Outline: as §2

[19] = qHTS to identify inhibitors of the type 1 interferon - major histocompatibility complex class I in skeletal muscle: primary screen against the NCATS Pharmaceutical Collection (AID 1347407);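 further: luminescence of HiBiT knocked into endogenous HLA-B as interferon-induced MHC class I level; potency means the concentration at half of the fitted maximal effect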
Outline: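 Luminescence from HiBiT-tagged endogenous HLA-B*08:01 served as the read-out of IFN-beta-induced MHC class I in CRISPR-engineered C25cl48 myoblasts. Cells received 4 ng/ml IFN-beta plus compound (high final 46 uM, […]) for 24 h.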

[20] = Primary qHTS for small molecule stabilizers of the endoplasmic reticulum resident proteome: Secreted ER Calcium Modulated Protein (SERCaMP) assay (AID 1508630); details: SH-SY5Y GLuc-SERCaMP (Gaussia luciferase released on ER calcium loss) secretion, thapsigargin, luminescence; activity change, negative = inhibition: at 38.4 µM (top of the series) unless noted; further: on the % scale 0 is the no-effect control and ±100 the full control effect
Outline: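 GLuc-SERCaMP-expressing SH-SY5Y cells, pretreated 16 h with compound, are challenged with thapsigargin to empty ER calcium stores; after 4 h, coelenterazine is added directly to the medium and luminescence is imaged.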

[21] = Primary qHTS for inhibitors of nuclear receptor binding SET domain protein 2 (NSD2) in an isogenic RCH-ACV NSD2 p.E1099K mutant (9B) (AID 1645876); details: activity change, negative = viability loss: at 44.9 µM (top of the series) unless noted; further: potency means the concentration at half of the fitted maximal effect; nearly all actives have a fitted effect of over 70% in size
HeLa = experiment: Primary qHTS to identify gynecologic anti-cancer compounds using libraries of approved drugs and bioactive compounds (AID 1345084); details: Gynecologic cancer cell panel viability, ATPlite luminescence, 48 h; series mostly up to 57.5 µM; further: on the % scale 0 is the no-effect control and ±100 the full control effect; nearly all actives have a fitted effect of over 55% in size
Outline: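 Luminescence from the ATPlite ATP-monitoring reagent indicates viable cell number; lower signal means cytotoxicity. Cells received compound 16 h after seeding and were exposed for 48 h across five concentrations.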

[22] = Drug repurposing screens with cells derived from glioblastoma tumor samples (AID 1345199); details: GBM patient neurospheres viability, ATP luminescence, 48 h; Potency: tumour line A unless noted; activity, negative = cell killing: at 46 µM (top of the series), tumour line A unless noted; further: potency means the concentration at half of the fitted maximal effect; nearly all actives have a fitted effect of over 40% in size
Outline: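 Four patient lines of CD133+ GBM neurospheres were screened at several concentrations; hits were retested in those lines plus three slower-growing GBM lines, using 48-hour treatment and ATP-based viability.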

[23] = tested on: Zika virus NS2B-NS3 protease (unlinked complex); experiment: Primary screen GU Rhodamine qHTS for Zika virus inhibitors: Unlinked NS2B-NS3 protease assay (AID 1347159); details: Recombinant ZIKV NS2B-NS3 protease, Rhodamine110 substrate fluorescence; activity change, negative = inhibition: at 107 µM (top of the series); further: on the % scale 0 is the no-effect control and ±100 the full control effect; nearly all actives have a fitted effect of over 60% in size
Outline: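 A qHTS format was used, with compound concentrations ranging up to 114 microM. Each compound was preincubated with 25 nM NS2B-NS3 protease, and the substrate was then added at 1.5 microM. Curves were fitted with a 4-parameter Hill model.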
Tags describe the fitted curve by direction and shape.

Sequence of UniProt P04150 (P04150 whole entry, looked up): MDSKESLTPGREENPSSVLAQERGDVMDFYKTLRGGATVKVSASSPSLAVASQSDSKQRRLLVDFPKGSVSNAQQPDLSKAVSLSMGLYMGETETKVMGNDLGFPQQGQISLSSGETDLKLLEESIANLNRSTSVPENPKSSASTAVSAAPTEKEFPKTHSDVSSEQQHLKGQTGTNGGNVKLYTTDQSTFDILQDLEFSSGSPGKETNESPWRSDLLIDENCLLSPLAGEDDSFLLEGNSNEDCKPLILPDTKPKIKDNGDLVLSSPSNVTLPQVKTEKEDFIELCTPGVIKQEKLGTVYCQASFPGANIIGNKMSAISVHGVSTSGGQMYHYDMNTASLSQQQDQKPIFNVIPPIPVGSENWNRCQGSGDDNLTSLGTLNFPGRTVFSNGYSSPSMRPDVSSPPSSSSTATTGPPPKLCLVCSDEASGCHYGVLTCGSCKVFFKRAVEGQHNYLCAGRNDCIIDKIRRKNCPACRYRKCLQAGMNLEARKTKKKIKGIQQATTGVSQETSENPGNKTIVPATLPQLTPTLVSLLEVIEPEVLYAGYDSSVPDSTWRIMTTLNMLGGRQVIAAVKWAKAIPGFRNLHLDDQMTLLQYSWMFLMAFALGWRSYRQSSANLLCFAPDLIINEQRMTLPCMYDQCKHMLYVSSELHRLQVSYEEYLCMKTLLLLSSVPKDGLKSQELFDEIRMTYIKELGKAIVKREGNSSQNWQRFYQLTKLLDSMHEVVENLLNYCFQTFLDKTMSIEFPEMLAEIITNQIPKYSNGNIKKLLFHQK
Sequence of UniProt P54132 (P54132 whole entry, looked up): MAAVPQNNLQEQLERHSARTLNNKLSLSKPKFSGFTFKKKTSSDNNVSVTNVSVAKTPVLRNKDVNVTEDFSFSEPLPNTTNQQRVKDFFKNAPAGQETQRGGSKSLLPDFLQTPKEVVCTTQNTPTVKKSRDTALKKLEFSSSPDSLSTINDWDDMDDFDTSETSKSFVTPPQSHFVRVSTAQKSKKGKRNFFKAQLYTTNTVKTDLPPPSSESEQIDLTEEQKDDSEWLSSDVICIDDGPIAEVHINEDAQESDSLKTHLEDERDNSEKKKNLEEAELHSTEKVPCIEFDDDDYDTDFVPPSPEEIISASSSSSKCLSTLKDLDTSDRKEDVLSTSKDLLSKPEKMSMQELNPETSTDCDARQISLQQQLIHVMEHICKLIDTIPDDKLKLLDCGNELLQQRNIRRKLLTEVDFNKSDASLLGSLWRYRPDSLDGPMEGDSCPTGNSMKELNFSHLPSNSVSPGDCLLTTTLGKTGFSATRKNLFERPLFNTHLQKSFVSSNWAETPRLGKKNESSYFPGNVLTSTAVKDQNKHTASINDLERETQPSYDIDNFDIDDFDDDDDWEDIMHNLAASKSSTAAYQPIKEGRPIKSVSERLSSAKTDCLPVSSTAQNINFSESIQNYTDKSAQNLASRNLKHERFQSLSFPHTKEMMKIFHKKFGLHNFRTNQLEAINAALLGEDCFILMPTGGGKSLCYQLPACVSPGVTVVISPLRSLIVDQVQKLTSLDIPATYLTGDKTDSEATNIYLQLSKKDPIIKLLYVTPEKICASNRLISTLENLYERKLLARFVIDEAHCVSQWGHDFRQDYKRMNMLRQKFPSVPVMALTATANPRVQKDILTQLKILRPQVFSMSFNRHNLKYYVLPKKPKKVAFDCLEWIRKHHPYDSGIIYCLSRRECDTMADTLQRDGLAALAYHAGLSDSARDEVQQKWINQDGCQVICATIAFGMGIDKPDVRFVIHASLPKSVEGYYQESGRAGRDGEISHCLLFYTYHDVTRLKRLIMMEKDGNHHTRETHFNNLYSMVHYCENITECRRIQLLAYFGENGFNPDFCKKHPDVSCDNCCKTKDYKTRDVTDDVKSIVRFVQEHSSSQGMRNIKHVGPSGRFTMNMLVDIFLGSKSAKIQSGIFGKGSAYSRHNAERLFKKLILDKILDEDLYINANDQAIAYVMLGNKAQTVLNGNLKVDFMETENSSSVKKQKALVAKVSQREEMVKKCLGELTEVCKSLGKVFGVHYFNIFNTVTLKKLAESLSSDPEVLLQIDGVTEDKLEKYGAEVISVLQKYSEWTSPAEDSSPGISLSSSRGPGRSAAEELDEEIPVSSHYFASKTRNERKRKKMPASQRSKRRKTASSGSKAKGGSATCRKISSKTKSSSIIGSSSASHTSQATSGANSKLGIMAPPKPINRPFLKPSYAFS

## C[C@]12CCC(=O)C=C1CC[C@@H]1[C@@H]2[C@@H](O)C[C@@]2(C)[C@H]1CC[C@]2(O)C(=O)COC(=O)CCC(=O)O
[1]
  activity change, negative = inhibition: inconclusive: 4.08% [activator]
[2]
  Potency: active: 44.2 nM and active: 599 nM
[3]
  Potency: inconclusive [inhibitor, single point]
[4]
  Potency: inactive
[5]
  Potency: inconclusive [inhibitor, single point]
[6]
  Potency: inactive
[7]
  Potency: inactive
[8]
  Potency: inactive
[9]
  Potency: inactive
[10]
  Potency: inactive
[11]
  Potency: inactive
[12]
  Potency: inactive
[13]
  Potency: inconclusive [rising, full curve, poor fit]
[14]
  Potency: inactive
[15]
  Potency: inactive
[16]
  Potency: inconclusive [cytotoxic, single point]
[17]
  Potency: inactive
[18]
  Potency: inactive
[19]
  Potency: inconclusive [inhibitor, partial curve, poor fit]
[20]
  Potency: inactive
[21]
  Potency: inconclusive [inhibitor, partial curve]
HeLa
  Potency: inactive
[22]
  Potency: inconclusive [inhibitor, partial curve, poor fit]

## CC1(C)CC[C@]2(C(=O)O)CC[C@]3(C)C(=CCC4[C@@]5(C)C[C@H](O)[C@H](O[C@@H]6O[C@H](CO)[C@@H](O)[C@H](O)[C@H]6O)[C@@](C)(CO)C5[C@H](O)C[C@]43C)[C@@H]2C1 (stereo partly specified)
[23]
  Potency: inactive
[21]
  Potency: inconclusive [inhibitor, partial curve, poor fit]
HeLa
  Potency: inactive
